Experimental data from the supplement of paper PMC3334620.
Over roughly 33,000 sequences, “E-score (-0.5 to 0.5)” has its median near -0.011; the highest 2% begin near 0.28. This is one part of the list.

Target: T1, Gcr1 (UniProt P07261)
T1 sequence: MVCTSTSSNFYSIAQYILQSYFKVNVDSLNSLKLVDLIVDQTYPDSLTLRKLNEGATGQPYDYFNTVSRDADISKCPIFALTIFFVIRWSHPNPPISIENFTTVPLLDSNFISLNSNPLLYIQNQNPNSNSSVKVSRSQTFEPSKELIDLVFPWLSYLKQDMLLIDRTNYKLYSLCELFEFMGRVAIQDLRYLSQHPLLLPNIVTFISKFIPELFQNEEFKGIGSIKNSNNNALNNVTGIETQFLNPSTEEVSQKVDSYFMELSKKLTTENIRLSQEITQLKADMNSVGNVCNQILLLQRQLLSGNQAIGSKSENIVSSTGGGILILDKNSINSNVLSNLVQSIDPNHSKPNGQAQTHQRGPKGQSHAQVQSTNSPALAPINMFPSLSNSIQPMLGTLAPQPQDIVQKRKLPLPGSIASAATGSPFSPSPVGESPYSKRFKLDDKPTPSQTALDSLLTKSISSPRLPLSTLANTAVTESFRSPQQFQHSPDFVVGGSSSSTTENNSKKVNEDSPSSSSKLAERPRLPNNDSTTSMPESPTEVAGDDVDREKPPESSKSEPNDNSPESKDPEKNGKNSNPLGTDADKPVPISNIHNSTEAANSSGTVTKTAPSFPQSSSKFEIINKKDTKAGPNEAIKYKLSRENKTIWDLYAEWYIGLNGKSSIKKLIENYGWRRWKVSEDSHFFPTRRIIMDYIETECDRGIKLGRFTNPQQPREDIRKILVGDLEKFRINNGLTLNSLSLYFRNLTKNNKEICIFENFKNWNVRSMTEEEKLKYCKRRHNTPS
Assay: PBM E-score (8-mer binding enrichment) (E-score (-0.5 to 0.5)); higher = stronger / more preferred TF binding; most listed sequences are background and not binding sites
Conditions: protein concentration: 100 nM; construct: GST-full length
Summary of the method: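 Bound GST-tagged yeast transcription factors, applied at about 100-200 nM to double-stranded universal all-10-mer Agilent arrays, were detected with fluorescent anti-GST. Scans were normalised with masliner. A modified Wilcoxon-Mann-Whitney statistic, the E-score, was assigned to each ungapped eight-base word pooled with its reverse complement by the Universal PBM Analysis Suite.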

Row | Sequence | PBM E-score
1 | TAGATCTA | 0.0037
2 | ATATCAAA | 0.0126
3 | TACCCCTA | -0.0302
4 | AGTGTAGA | -0.0425
5 | AGGGAAAA | 0.108
6 | AAAAAGGG | 0.264
7 | AGAGGGTC | -0.153
8 | AACTGGGA | 0.0745
9 | GCTACCCA | 0.00454
10 | GACAGAGC | -0.149
11 | AAGTCGTC | 0.145
12 | CAACACAC | 0.016
13 | CTGCATTC | 0.11
14 | ATCGGTGC | 0.0266
15 | AATCATTC | -0.0135
16 | AACTCGCC | -0.238
17 | ACTAGACC | -0.226
18 | ACACAACG | -0.063
19 | ATACAAAG | 0.0628
20 | CACCTGTA | 0.0936
21 | GGAGGCAC | -0.00433
22 | ACTTACCG | -0.0842
23 | ATCGCTAA | -0.0832
24 | CGAGGGCA | -0.024
25 | GCACACGA | -0.00983

Row | Sequence | PBM E-score
26 | ACGTACGG | 0.0221
27 | GATATCGC | -0.071
28 | ACGCATGG | 0.0563
29 | CTGCTAAG | -0.151
30 | AGACCGAA | -0.18
31 | GAATAGAA | 0.124
32 | AAGCCGTA | -0.153
33 | AAGGCATA | -0.307
34 | AAGGCAGT | -0.102
35 | GTGGGTCA | -0.239
36 | ACGCGTAC | -0.156
37 | GATACGCC | 0.0723
38 | CAAACTGC | 0.0479
39 | GCCCCTAA | 0.199
40 | AGCACGTA | -0.00967
41 | CAGTGTGG | 0.00248
42 | CGTGCGAG | 0.0623
43 | AAAACAAG | -0.012
44 | AAAGTCAG | -0.0699
45 | CGCATTAG | 0.132
46 | CTTACGAC | -0.111
47 | ACGGGCGC | 0.092
48 | CTCTACGC | 0.014
49 | CAGCCTAC | -0.209
50 | CGCGGGCA | -0.00343

Row | Sequence | PBM E-score
51 | CCTCGCCG | -0.188
52 | AAGCGCTA | -0.0831
53 | AAGCGTAT | 0.00221
54 | AATTAACT | -0.0748
55 | ACGAGGTG | 0.0302
56 | AGTCACTA | 0.132
57 | ATAAAATC | -0.034
58 | CAAGTATC | 0.109
59 | GCTTCGTA | 0.329
60 | CATCAGGC | -0.105
61 | ACATCGCA | 0.0289
62 | CAAGATGC | 0.277
63 | ATATGCTG | 0.0614
64 | GCAATACA | -0.0369
65 | GCCCGTTA | -0.0567
66 | CCCCCATA | -0.0645
67 | GAGAGTAA | 0.0892
68 | ATAGGTTG | 0.0783
69 | ACCACGCT | -0.145
70 | ATCGTTAC | -0.135
71 | GCCCGAGC | -0.206
72 | TCACATAA | -0.0117
73 | ACAATGTA | 0.016
74 | GACCCCAA | 0.093
75 | ACAGTTAT | 0.0965

Row | Sequence | PBM E-score
76 | AGCTAGCA | 0.0297
77 | AGGTCGGG | -0.149
78 | GCAGAAGC | 0.0881
79 | GACGCTCA | 0.106
80 | AGTTTAAA | -0.00503
81 | AGATGTTG | 0.113
82 | ATGAGGGA | -0.0163
83 | CCTGCGAC | -0.156
84 | CAGCAGCG | 0.275
85 | CCACACCG | 0.0542
86 | AGCCTCTC | -0.122
87 | AGCCAGGG | -0.055
88 | ACTGGATG | 0.326
89 | AATGCAGT | -0.0302
90 | CCATGTGC | 0.0687
91 | CTTGGGGC | 0.0599
92 | CGGGCCAG | -0.157
93 | AGATAAAC | -0.045
94 | CAGTCCAG | -0.198
95 | CGTAAGCA | -0.0231
96 | ATCATGAA | 0.0447
97 | GAATGTGC | -0.0334
98 | ACTGGACC | -0.00013
99 | GGCCCAAA | 0.132
100 | AAGACATG | -0.165

Row | Sequence | PBM E-score
101 | CAGCGCAA | -0.0115
102 | CAGTCTCC | 0.0429
103 | CAGTTTGC | 0.132
104 | CATAAAGG | 0.0543
105 | CCTCCTAA | 0.124
106 | ATTGAGCC | -0.0506
107 | CACCTAAG | 0.0206
108 | TATAAGGA | 0.124
109 | TAAGTAGA | 0.0667
110 | CACCAGGC | -0.0202
111 | ATAAAAAC | -0.0362
112 | GATAGACC | -0.24
113 | AGTTATGG | 0.0681
114 | ATCTCAGA | -0.0288
115 | CACCGATA | 0.0719
116 | CCCTTCAG | -0.0474
117 | TATGGTCA | 0.115
118 | CCGGCAGG | -0.253
119 | CTCATATC | -0.0739
120 | CCTTTGAG | -0.0418
121 | AGCTGTAA | -0.0854
122 | CCGGTGCA | 0.0853
123 | AACCGGGC | 0.00055
124 | GAAGCCCA | 0.368
125 | GATGTACC | -0.0844

Row | Sequence | PBM E-score
126 | GACTACGA | -0.178
127 | ATTCACGC | 0.0667
128 | ATGATGCC | 0.238
129 | CCTACCAA | -0.0494
130 | AGGGTGCA | -0.0715
131 | CGGCGTGA | -0.0632
132 | CGTCGCAA | -0.0266
133 | CGTCGGCA | 0.0271
134 | CCCTGCGA | -0.163
135 | AATCCGCT | -0.061
136 | GCACAGGA | -0.0349
137 | GTCAAAGA | -0.189
138 | AAATCACC | 0.094
139 | AACTTGAA | 0.0158
140 | CTTTCTGA | -0.0366
141 | CATTCCGC | -0.12
142 | ATAGACAG | -0.00126
143 | TACGTAGA | 0.0104
144 | ACAGCTCA | -0.146
145 | GGATATAC | 0.0934
146 | CGGCGTTA | -0.13
147 | ATCATAAT | 0.0389
148 | AACGCCTT | -0.0116
149 | CAGCTCAA | -0.13
150 | ATTTGGCC | -0.118

Row | Sequence | PBM E-score
151 | AAGTATTC | -0.0309
152 | AGAGTGCT | -0.131
153 | CTCGGTTC | -0.183
154 | CAGATGCG | 0.108
155 | TTCGGCAA | 0.119
156 | CGCAACGA | -0.141
157 | ATTTCAGA | -0.032
158 | AACTTCGG | -0.0312
159 | GTTTCATA | 0.102
160 | CCACAAAC | 0.19
161 | GCCCGTAC | -0.121
162 | AGCCCTCA | -0.0713
163 | GTTGAACA | -0.125
164 | GGTCCCCA | 0.268
165 | TAAGAAAA | 0.147
166 | CGTTCCAA | 0.03
167 | CTCAAAAA | 0.0947
168 | AAACTAGG | 0.0785
169 | ATTTCGGG | 0.0915
170 | AAAGGGAC | -0.169
171 | CGCTACGC | -0.0843
172 | ACGCTCAT | -0.126
173 | GGTCTGCA | -0.00311
174 | CTCTGTCA | -0.0979
175 | CTAAAGGC | -0.113

Row | Sequence | PBM E-score
176 | GGGCATAC | -0.285
177 | CGTTTTTA | 0.0759
178 | CCTAGTGA | 0.0612
179 | ATTCAGAC | 0.0209
180 | CTACGATC | 0.126
181 | ACAATTGC | -0.0244
182 | ACATTTAC | -0.0137
183 | CGGCGTAG | -0.15
184 | ACCGGGTC | 0.0249
185 | ACTGGTAT | 0.241
186 | ACTCGACA | 0.0696
187 | CTTTATAA | 0.171
188 | GACTCGGA | -0.138
189 | CCATTTCG | 0.0427
190 | CCACCCTA | 0.0045
191 | GGGCGCCA | 0.403
192 | GGTCTGAC | -0.327
193 | CTGTCCAA | -0.0328
194 | CGAAAGTA | -0.00293
195 | CTTACTTC | -0.0902
196 | CTCGGTTA | -0.0228
197 | ACGGAAGG | -0.165
198 | TCTTGTAA | 0.231
199 | CACCTGGA | 0.225
200 | CCATTTAG | 0.0199

Row | Sequence | PBM E-score
201 | ATCCTGGG | 0.158
202 | AACATAAC | -0.0858
203 | CCGATTAG | 0.0563
204 | GAAAGGTA | 0.0356
205 | GCGTGCCC | -0.142
206 | AGATGCTG | 0.282
207 | TCAAGCCA | -0.194
208 | CTCCGGGC | -0.0116
209 | CCCCGAGC | -0.156
210 | CTATCAAA | 0.119
211 | GATGCTCC | 0.0373
212 | TCGGCGCA | -0.177
213 | GCAGCTGC | 0.249
214 | CTAGTGTA | 0.127
215 | AAAAACCC | 0.0302
216 | CCTAGAGA | -0.145
217 | CCTACGAG | -0.253
218 | CTGGTGCA | 0.216
219 | CATGACTC | -0.185
